Results published in PubChem BioAssay AID485344 (National Center for Advancing Translational Sciences (NCATS), 2010).
The campaign covered roughly 340,000 compounds. About 6,900 (2%) were called active. Rule as the data show it: active = inhibition above about 30%; inactive = below that, where a call was filed. The entries are a selection whose mix differs from that of the whole data set. Where no call is shown, the source filed none. More than one record can exist for a structure, and the calls need not agree.

Target: D(2) dopamine receptor (Homo sapiens) (UniProt P14416)
Assay: HTS Assay for Allosteric Antagonists of the Human D2 Dopamine Receptor: Primary Screen for Antagonists; also: 0% is about no effect
Conditions: HEK293 TREx D2 cells, calcium flux, dopamine EC80; at 10 µM; stronger effect = higher value
How it was run: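 Inhibition of EC80 dopamine-driven calcium flux, recorded kinetically, defines activity here; cells are a tetracycline-induced HEK293 T-REx line expressing force-coupled D2.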

UniProt P14416, sequence (P14416 whole entry, looked up): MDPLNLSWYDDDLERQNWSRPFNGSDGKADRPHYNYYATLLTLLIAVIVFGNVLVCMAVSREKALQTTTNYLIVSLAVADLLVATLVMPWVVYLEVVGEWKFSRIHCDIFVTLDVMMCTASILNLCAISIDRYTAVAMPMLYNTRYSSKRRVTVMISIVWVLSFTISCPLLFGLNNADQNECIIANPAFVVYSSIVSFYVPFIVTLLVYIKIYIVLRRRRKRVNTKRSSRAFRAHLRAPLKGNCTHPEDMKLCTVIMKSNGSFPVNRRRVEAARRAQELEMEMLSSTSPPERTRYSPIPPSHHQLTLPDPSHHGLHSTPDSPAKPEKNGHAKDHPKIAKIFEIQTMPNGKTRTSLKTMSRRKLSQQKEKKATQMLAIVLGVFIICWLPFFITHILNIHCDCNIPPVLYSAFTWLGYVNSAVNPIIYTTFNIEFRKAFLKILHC

Row | SMILES | inhibition
1 | Cc1cccc(C(=O)N(Cc2ccccc2F)C2CCS(=O)(=O)C2)c1 (centres undefined) | 10.6%
2 | COC(=O)c1c(NC(=O)COc2cccc(C(F)(F)F)c2)sc2c1CCCC2 | -10.8%
3 | COc1ccc(Cc2nc3c4cnn(-c5cccc(F)c5)c4ncn3n2)cc1 | 5.11%
4 | CCOc1ccccc1C(=O)Nc1ccc(S(=O)(=O)N(Cc2ccccc2)c2ccccc2)cc1 | -6.35%
5 | CCOC(=O)c1ccccc1NC(=O)Cn1ccn2nc(-c3ccc(OCC)cc3)cc2c1=O | 5.33%
6 | Cc1ccccc1-c1noc(-c2nnn(-c3ccccc3C)c2N)n1 | 8.64%
7 | Cc1ccc(-n2cc(C(=O)OCc3ccc(F)c(F)c3)c3ccccc3c2=O)cc1 | 4.34%
8 | COc1ccc(/C=C2/N=C(SCC(=O)Nc3cc(C)on3)N(c3ccccc3)C2=O)cc1 | active: 31.5%
9 | CCCN1Cc2cccc(C(=O)Nc3ccccc3C(=O)OC)c2C1=O | 4.49%
10 | CCOc1ccc(NC(=O)CN2CCN(CC(=O)Nc3ccc(F)cc3F)CC2)cc1 | 0.644%
11 | O=C(NCCN1CCN(c2ccccc2)CC1)c1ccc2c(c1)[nH]c(=S)n1c3ccccc3nc21 | active: 33.6%
12 | Cc1cccc(NC(=S)NC(NC(=O)c2ccco2)C(Cl)(Cl)Cl)c1 (centres undefined) | active: 30.3%
13 | Cc1ccc(CNC(=O)C2CCCN(c3ncnc4onc(-c5ccc(F)cc5)c34)C2)cc1 (centres undefined) | -5.64%
14 | COc1ccc(OC)c(NC(=O)Cn2c(=O)cc(C)c3c(C)nn(-c4cccc(Cl)c4C)c32)c1 | 9.49%
15 | CN1CC(=O)Nc2cc(C(=O)O)ccc21 | -11.2%
16 | O=C(OCc1nc2ccccc2s1)c1ccc(Br)s1 | active: 31.9%
17 | O=C(CN1C(=O)CCSc2ccccc21)Nc1ccc(C(F)(F)F)cc1 | 9.42%
18 | CCOc1ccccc1NC(=O)Cn1c(=O)n(Cc2cccs2)c(=O)c2cccnc21 | -4.58%
19 | CCC(C(=O)NCCc1cc(OC)ccc1OC)n1nc(C)c2c(C)n(-c3ccccc3)nc2c1=O (centres undefined) | -10.1%
20 | Fc1ccc(-c2nn(-c3ccc(Cl)cc3)c3c2cnc2ccc(F)cc23)cc1 | -0.997%
21 | COc1ccc(-n2c(=O)c3ccccc3n(Cc3ccccc3Cl)c2=O)cc1 | -17.2%
22 | CC(Sc1nc(=O)cc(N)n1CCc1ccccc1)C(=O)Nc1cccc(Cl)c1 (centres undefined) | 17.5%
23 | Cc1ccc(C)c(CN2C(=O)c3ccccc3S(=O)c3ccc(C(=O)N4CCOCC4)cc32)c1 (centres undefined) | -23%
24 | COc1ccc(C(=O)Nc2nc3n(n2)C(c2ccc(Cl)cc2)C=C(c2ccccc2)N3)cc1OC (centres undefined) | -5.24%

Row | SMILES | inhibition
25 | COc1ccccc1N1CCN(S(=O)(=O)c2c(C)sc3ncn(CC(=O)Nc4ccc(C)cc4Br)c(=O)c23)CC1 | -3.25%
26 | Cc1ccc(Nc2sc(C(=O)c3ccc(F)cc3)c(N)c2S(=O)(=O)c2ccc(C)cc2)cc1 | -13.5%
27 | Cc1ccc(S(=O)(=O)c2nnn3c2nc(N2CCOCC2)c2sccc23)cc1C | 2.1%
28 | CCCS(=O)(=O)Nc1cc(-c2cn3ccc(C)cc3n2)ccc1C | 12.1%
29 | O=C(Nc1ccc2nc(SCC(=O)N3CCCc4ccccc43)sc2c1)c1ccc(Cl)cc1 | -1.6%
30 | Cc1ccc(-n2ncc(C(=O)NC3CCN(Cc4ccccc4)CC3)c2C2CCN(C(=O)OC(C)(C)C)CC2)cc1C | -4.7%
31 | Cc1ccc(CSC2=Nc3ccccc3C3=NC(CC(=O)NCc4ccc5c(c4)OCO5)C(=O)N23)cc1 (centres undefined) | 14.4%
32 | Cc1cccc(C2N=C(N)Nc3nc4ccccc4n32)c1 (centres undefined) | 10.3%
33 | COc1cc(OC)c(NC(=O)c2ccc3c(c2)N(Cc2ccc(C)cc2)CCS3)cc1Cl | 1.72%
34 | OC(COc1ccc2c(c1)OCO2)CN1CCN(c2ccc(F)cc2)CC1 (centres undefined) | active: 75.8%
35 | Cn1c(N)c(C(=O)CSc2nnnn2-c2ccccc2)c(=O)n(C)c1=O | active: 38.6%
36 | COc1ccccc1NC(=O)N(Cc1cccs1)Cc1cc2cc3c(cc2[nH]c1=O)OCO3 | active: 35.5%
37 | CCN(CC)S(=O)(=O)c1ccc2c(c1)c(=O)c(C(=O)N1CCN(c3cccc(Cl)c3)CC1)cn2C | 14.6%
38 | Cn1c(=O)oc2cc(S(=O)(=O)NC(Cc3ccccc3)C(=O)NCc3ccccc3Cl)ccc21 (centres undefined) | -8.98%
39 | COc1ccc(-c2n[nH]c3c2cnc2cc(OC)c(OC)cc23)cc1 | -14%
40 | CCOc1ccccc1CNC(=O)C1CCN(c2nc3ccccc3nc2C(F)(F)F)CC1 | 0.263%
41 | CN1C(C(=O)Nc2cccc(O)c2)=CC(c2ccco2)=NS1(=O)=O | -9.16%
42 | Cc1cccc(N2CCn3c2nc2c3c(=O)n(C/C=C/c3ccccc3)c(=O)n2C)c1 | 25.6%
43 | COc1ccc(-c2cc(C(=O)N3CCN(c4ccccc4)CC3)no2)cc1 | 1.25%
44 | CC(C)c1ccc(NC(=O)N2c3ccccc3Sc3ccccc32)cc1 | -12.1%
45 | C=Cc1ccc(Cn2c(=O)n(-c3cccc(Cl)c3)c(=O)c3c4c(sc32)CN(C(C)=O)CC4)cc1 | -4.92%
46 | COCCCNC(=O)CCn1c(=O)c2ccccc2n(CC(=O)Nc2cc(Cl)ccc2OC)c1=O | 4.58%
47 | CCN(Cc1ccccc1)Cc1c(O)ccc2oc(C)c(C(=O)Nc3ccc(C)cc3C)c12 | 10.9%
48 | Cc1ccc(S(=O)(=O)N(CC(=O)NCCSc2ccc(Cl)cc2)c2ccccc2C)cc1 | -27.2%

Row | SMILES | inhibition
49 | O=C(CCCCCn1c(=O)c2sccc2n(Cc2ccc(Cl)cc2)c1=O)NCc1ccc2c(c1)OCO2 | -0.955%
50 | Cc1cc(Br)ccc1NC(=O)c1sc2nc3n(c(=O)c2c1C)CCCC3 | 7.41%
51 | CC(C)CCNC(=O)Cn1c(-c2cccs2)cc2cc(F)ccc21 | 5.61%
52 | COc1ccc(NC(=O)COC(=O)c2cc(OC)c(OC)cc2NC(=O)c2ccco2)cc1OC | active: 57.5%
53 | Cc1ccc(NC(=O)C2CCN(c3nnc(C)c4c(C)n(-c5ccccc5)nc34)CC2)c(Cl)c1 | -5.5%
54 | COc1ccc(Cl)cc1C(=O)Nc1nnc2n1CCS2 | -28.3%
55 | CCc1nnc(NC(=O)c2nc(SCc3ccccc3F)ncc2Cl)s1 | -26.1%
56 | CCCCOc1ccc(Cn2c(=O)oc3ccc(C)cc32)cc1OC | -6.5%
57 | COc1ccc(S(=O)(=O)N2CCN(c3cccc(C)c3C)CC2)c2ccccc12 | -18.9%
58 | CCc1c(C)nc2nncn2c1NCc1ccccc1 | 10.6%
59 | O=S1(=O)c2ccccc2N(Cc2ccc(Cl)cc2)c2ccccc21 | -3.7%
60 | COc1ccc2c(c1)c(=O)c(C(=O)c1ccc(F)cc1)cn2CC(=O)Nc1ccc2c(c1)OCO2 | 1.09%
61 | CCOC(=O)CNC(=O)N1[C@H](c2cccs2)[C@@H](C)C(=O)[C@@H](C)[C@@H]1c1cccs1 | 2.45%
62 | CCOc1ccc(N2CC(NC(=O)C3CCCCC3)CC2=O)cc1 (centres undefined) | -12.9%
63 | COc1cc(NC(=O)c2nc3nc(C)cc(C(F)F)n3n2)c(OC)cc1Cl | -2.5%
64 | Cc1ccc(CNC(=O)c2ccc(CN3CC(=O)N4CCCCC4C3=O)cc2)cc1 (centres undefined) | -14.2%
65 | Cc1cc(C)cc(NC(=O)Cn2cc(C(=O)c3cccs3)c3ccccc32)c1 | 7.38%
66 | COc1ccc(Nc2c(-c3ccc(C)o3)nc3cc(C)ccn23)cc1 | 5.18%
67 | CC(=O)N1CCC(N(Cc2ccco2)C(=O)Nc2ccc(C)c(Cl)c2)CC1 | -4.08%
68 | Cc1ccc2[nH]c3c(=O)n(CC(=O)N(CCN(C)C)Cc4ccccc4)ncc3c2c1 | -9.94%
69 | O=C(O)c1cc(-c2ccccc2)nc2ccccc12 | active: 40.3%
70 | CN1CCC(N(C)S(=O)(=O)c2ccc(F)cc2F)CC1 | active: 32.8%
71 | O=C(COc1ccc(Cl)cc1Cl)Nc1cccc2cccnc12 | 8.61%
72 | Cc1nnc(N2C(=O)c3oc4ccccc4c(=O)c3C2c2ccc(Cl)cc2)s1 (centres undefined) | -3.85%

Row | SMILES | inhibition
73 | Cc1ccc2c(c1)C(=O)OC(C(=O)Nc1ncc(Cc3ccc(Cl)cc3)s1)C2 (centres undefined) | -3.43%
74 | Cc1c(C(=O)OC2CCCCCC2)[nH]c2c1C(=O)CC(c1ccc(Cl)cc1)C2 (centres undefined) | 10.4%
75 | Cc1cccc(C)c1-n1ncc(C(=O)NC2CCCC2)c1C1CCN(C(=O)OC(C)(C)C)CC1 | -2.33%
76 | O=C(c1ccc2c(c1)CCN2S(=O)(=O)c1ccc(Cl)cc1)N1CCN(c2ccc(F)cc2)CC1 | -14.1%
77 | CCOc1ccc(NC(=O)NCc2cccn2Cc2ccccc2)cc1 | -12.9%
78 | Cc1cccc(OCC(=O)Nc2cccc3cccnc23)c1C | -6.8%
79 | COc1ccc(N2CCN(C(=O)CCc3c(C)nc4cc(-c5ccc(OC)cc5OC)nn4c3C)CC2)cc1 | -18.6%
80 | CC1Cc2cc(/C(O)=C3/C(=O)C(=O)N(CCCn4ccnc4)C3c3ccc(F)cc3)ccc2O1 (centres undefined) | active: 44.2%
81 | CCOC(=O)c1c(NC(=O)c2ccccc2OCC)sc2c1CCC(CC)C2 (centres undefined) | -4.98%
82 | CN(C)S(=O)(=O)c1ccc(C(=O)NCCSc2c(-c3ccc(Cl)cc3)[nH]c3ccccc23)cc1 | -3.93%
83 | CCCOc1ccc(C2C(=O)N(C3CCCCCC3)CC(=O)N2CCC)cc1OC (centres undefined) | 17.6%
84 | COc1ccccc1N1CCN(C(=O)c2cnn(-c3ccc(F)cc3F)c2C2CCNCC2)CC1 | 6.25%
85 | Cc1ccc(Nc2nnc(-c3ccc(C)c(S(N)(=O)=O)c3)c3ccccc23)cc1 | 10.9%
86 | COc1cccc(C(=O)Nc2ccc3oc(-c4cccc5c(Br)cccc45)nc3c2)c1 | 3.19%
87 | COc1ccc(S(=O)(=O)NCC(c2ccc(N(C)C)cc2)N2CCc3ccccc32)cc1OC (centres undefined) | 7.3%
88 | CCc1ccccc1N(C)C(=O)c1ccc2c(=O)n3c(nc2c1)CCCCC3 | -6.89%
89 | CCOc1ccc(CC(=O)NCC(c2cccs2)S(=O)(=O)c2ccc(F)c(C)c2)cc1 (centres undefined) | -1.28%
90 | CCc1ccc(NC(=O)C(CC)n2c(=O)c(-c3ccccc3NC(C)=O)nc3ccccc32)cc1 (centres undefined) | 28.2%
91 | Cc1ccc(NC(=O)C2CC(=O)N(c3ccc(OC(C)C)cc3)C2)cc1 (centres undefined) | 4.29%
92 | CCOC(=O)c1c(C)c(-c2ccccc2)n(CC(=O)NC(CC)Cc2ccccc2)c1C (centres undefined) | -0.733%
93 | CCN(CC)c1ccc(NC(=O)C2CCN(S(=O)(=O)c3cnc[nH]3)CC2)c(C)c1 | 21.4%
94 | O=C(CSc1nc(-c2ccc(F)cc2)[nH]c1-c1ccc(F)cc1)Nc1ccc2c(c1)OCCO2 | -9.41%
